Binding data for 13 molecules are collected here from article PMC4203352.

Amino acid sequences for entries named in this document (tags omitted). Residues count along the entry.
UniProt P07237, residues 18-508: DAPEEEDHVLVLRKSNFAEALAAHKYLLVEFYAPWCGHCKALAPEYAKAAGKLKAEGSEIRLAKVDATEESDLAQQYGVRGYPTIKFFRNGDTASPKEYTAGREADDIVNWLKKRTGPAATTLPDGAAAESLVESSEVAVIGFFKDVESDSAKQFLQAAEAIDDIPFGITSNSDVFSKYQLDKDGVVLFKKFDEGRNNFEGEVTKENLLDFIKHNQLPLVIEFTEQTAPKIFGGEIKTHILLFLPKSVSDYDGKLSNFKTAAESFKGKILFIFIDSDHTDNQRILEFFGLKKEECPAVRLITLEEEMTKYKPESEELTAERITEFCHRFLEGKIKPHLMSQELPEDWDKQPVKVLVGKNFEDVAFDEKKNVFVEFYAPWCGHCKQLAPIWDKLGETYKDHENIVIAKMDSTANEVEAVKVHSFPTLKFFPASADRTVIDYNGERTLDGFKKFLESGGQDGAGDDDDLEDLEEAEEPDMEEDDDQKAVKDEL
UniProt P30101, residues 25-505: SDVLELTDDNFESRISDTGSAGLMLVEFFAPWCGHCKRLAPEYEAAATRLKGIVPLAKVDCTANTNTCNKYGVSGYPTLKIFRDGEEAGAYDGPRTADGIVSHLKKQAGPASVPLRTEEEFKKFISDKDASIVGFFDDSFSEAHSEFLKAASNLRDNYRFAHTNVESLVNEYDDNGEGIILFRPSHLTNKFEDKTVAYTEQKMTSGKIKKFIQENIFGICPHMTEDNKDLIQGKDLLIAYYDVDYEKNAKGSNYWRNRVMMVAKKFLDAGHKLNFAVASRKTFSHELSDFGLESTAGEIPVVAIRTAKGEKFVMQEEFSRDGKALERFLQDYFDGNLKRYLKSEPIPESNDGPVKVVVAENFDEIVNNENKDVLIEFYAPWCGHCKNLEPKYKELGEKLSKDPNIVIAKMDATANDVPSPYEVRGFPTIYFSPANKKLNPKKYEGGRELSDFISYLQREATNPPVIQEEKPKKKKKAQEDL
UniProt Q8NBS9, residues 33-432: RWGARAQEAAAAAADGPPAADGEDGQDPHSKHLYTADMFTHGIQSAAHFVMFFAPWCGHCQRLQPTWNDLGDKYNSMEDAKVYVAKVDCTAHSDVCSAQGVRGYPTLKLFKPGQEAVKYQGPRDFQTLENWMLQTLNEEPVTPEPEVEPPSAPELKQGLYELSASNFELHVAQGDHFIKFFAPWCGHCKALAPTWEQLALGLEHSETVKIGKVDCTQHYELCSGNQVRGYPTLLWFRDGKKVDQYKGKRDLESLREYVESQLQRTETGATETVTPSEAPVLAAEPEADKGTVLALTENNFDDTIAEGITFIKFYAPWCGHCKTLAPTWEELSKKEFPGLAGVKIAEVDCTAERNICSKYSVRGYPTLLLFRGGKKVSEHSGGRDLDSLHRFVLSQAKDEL

Read-outs that look alike come from different tables or passages of the source. Results are given in words; binding and its absence hold for the method and conditions named. Binding seen in cells or lysates may run through a third protein. Some results given as binding are weak or reduced against the parent protein; the word gives no strength. Tags and fused reporters may be left off the sequences shown.

Test [1] deals with T1, Thioredoxin-interacting protein (Txnip), N-terminal tandem Strep/FLAG tag (UniProt Q9H3M7).
T1 sequence: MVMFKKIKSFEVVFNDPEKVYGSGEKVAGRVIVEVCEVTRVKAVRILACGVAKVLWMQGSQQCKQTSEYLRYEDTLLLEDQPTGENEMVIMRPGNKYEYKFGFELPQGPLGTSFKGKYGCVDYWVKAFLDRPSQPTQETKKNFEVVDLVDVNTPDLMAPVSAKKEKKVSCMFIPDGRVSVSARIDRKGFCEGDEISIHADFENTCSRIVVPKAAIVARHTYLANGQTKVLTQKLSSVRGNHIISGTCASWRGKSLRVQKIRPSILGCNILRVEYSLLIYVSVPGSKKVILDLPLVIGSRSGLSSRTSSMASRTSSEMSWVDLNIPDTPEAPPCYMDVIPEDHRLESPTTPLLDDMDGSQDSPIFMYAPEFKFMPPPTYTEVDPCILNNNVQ
Description: pull-down; HEK293TN cells co-transfected with the indicated plasmids; lysis in 0.5% Triton X-100, 150 mM NaCl, 50 mM Tris, pH 7.8; Strep/FLAG-tagged Txnip (or Arrdc1-4) held on magnetic Streptactin beads; wash with 0.5% Triton X-100, 500 mM NaCl, 50 mM Tris, pH 7.8; eluates by SDS-PAGE and immunoblot. Background: A western blot detects proteins with antibodies after separation by electrophoresis.

Test [2] addresses T1, Thioredoxin-interacting protein (Txnip), N-terminal tandem Strep/FLAG tag. Described as above. This is another data set of the same source.

“PDI (protein disulfide isomerase), HA tag (from UniProt P07237 18-508) (enzyme)”: in test [1], the binding entry is given as “binds”.
Regarding “PDIA9, HA tag (from UniProt P30040 33-261)”, the binding entry in test [1] was “no binding”.
Same read-out and setting: in the case of “PDIA3, HA tag (from UniProt P30101 25-505) (enzyme)” it was “binds”; in that of “PDIA15, HA tag (from UniProt Q8NBS9 33-432) (enzyme)”, “binds”.

B1: PDIA6 (135-421), C-terminal domain, HA tag (domain or fragment, UniProt Q15084 154-440)
chain: SDSSSKKDVIELTDDSFDKNVLDSEDVWMVEFYAPWCGHCKNLEPEWAAAASEVKEQTKGKVKLAAVDATVNQVLASRYGIRGFPTIKIFQKGESPVDYDGGRTRSDIVSRALDLFSDNAPPPELLEIINEDIAKRTCEEHQLCVVAVLPHILDTGAAGRNSYLEVLLKLADKYKKKMWGWLWTEAGAQSELETALGIGGFGYPAMAAINARKMKFALLKGSFSEQGINEFLRELSFGRGSTAPVGGGAFPTIVEREPWDGRDGELPVEDDIDLSDVELDDLGKDEL
Turning to B1, the binding entry in test [2] was “binds”.

B2: PDIA6 (135-421) C174A, HA tag (domain or fragment, UniProt Q15084 154-440)
chain: SDSSSKKDVIELTDDSFDKNVLDSEDVWMVEFYAPWCGHAKNLEPEWAAAASEVKEQTKGKVKLAAVDATVNQVLASRYGIRGFPTIKIFQKGESPVDYDGGRTRSDIVSRALDLFSDNAPPPELLEIINEDIAKRTCEEHQLCVVAVLPHILDTGAAGRNSYLEVLLKLADKYKKKMWGWLWTEAGAQSELETALGIGGFGYPAMAAINARKMKFALLKGSFSEQGINEFLRELSFGRGSTAPVGGGAFPTIVEREPWDGRDGELPVEDDIDLSDVELDDLGKDEL
For the molecule B2, in test [2], the binding entry was “binds”.

B3: PDIA6 (135-421) C174S, HA tag (domain or fragment, UniProt Q15084 154-440)
chain: SDSSSKKDVIELTDDSFDKNVLDSEDVWMVEFYAPWCGHSKNLEPEWAAAASEVKEQTKGKVKLAAVDATVNQVLASRYGIRGFPTIKIFQKGESPVDYDGGRTRSDIVSRALDLFSDNAPPPELLEIINEDIAKRTCEEHQLCVVAVLPHILDTGAAGRNSYLEVLLKLADKYKKKMWGWLWTEAGAQSELETALGIGGFGYPAMAAINARKMKFALLKGSFSEQGINEFLRELSFGRGSTAPVGGGAFPTIVEREPWDGRDGELPVEDDIDLSDVELDDLGKDEL
Take B3: the binding entry in test [2] was “binds”.

B4: PDIA6 (135-421) C171S, HA tag (domain or fragment, UniProt Q15084 154-440)
chain: SDSSSKKDVIELTDDSFDKNVLDSEDVWMVEFYAPWSGHCKNLEPEWAAAASEVKEQTKGKVKLAAVDATVNQVLASRYGIRGFPTIKIFQKGESPVDYDGGRTRSDIVSRALDLFSDNAPPPELLEIINEDIAKRTCEEHQLCVVAVLPHILDTGAAGRNSYLEVLLKLADKYKKKMWGWLWTEAGAQSELETALGIGGFGYPAMAAINARKMKFALLKGSFSEQGINEFLRELSFGRGSTAPVGGGAFPTIVEREPWDGRDGELPVEDDIDLSDVELDDLGKDEL
B4: the binding result in test [2] was “no binding”.

B5: PDIA4, HA tag (enzyme, UniProt P13667 21-645)
chain: VAGAEGPDEDSSNRENAIEDEEEEEEEDDDEEEDDLEVKEENGVLVLNDANFDNFVADKDTVLLEFYAPWCGHCKQFAPEYEKIANILKDKDPPIPVAKIDATSASVLASRFDVSGYPTIKILKKGQAVDYEGSRTQEEIVAKVREVSQPDWTPPPEVTLVLTKENFDEVVNDADIILVEFYAPWCGHCKKLAPEYEKAAKELSKRSPPIPLAKVDATAETDLAKRFDVSGYPTLKIFRKGRPYDYNGPREKYGIVDYMIEQSGPPSKEILTLKQVQEFLKDGDDVIIIGVFKGESDPAYQQYQDAANNLREDYKFHHTFSTEIAKFLKVSQGQLVVMQPEKFQSKYEPRSHMMDVQGSTQDSAIKDFVLKYALPLVGHRKVSNDAKRYTRRPLVVVYYSVDFSFDYRAATQFWRSKVLEVAKDFPEYTFAIADEEDYAGEVKDLGLSESGEDVNAAILDESGKKFAMEPEEFDSDTLREFVTAFKKGKLKPVIKSQPVPKNNKGPVKVVVGKTFDSIVMDPKKDVLIEFYAPWCGHCKQLEPVYNSLAKKYKGQKGLVIAKMDATANDVPSDRYKVEGFPTIYFAPSGDKKNPVKFEGGDRDLEHLSKFIEEHATKLSRTKEEL
Turning to B5, the binding result in test [2] is on record as “binds”.

B6: PDIA6 (1-118), N-terminal domain, HA tag (domain or fragment, UniProt Q15084 20-137)
chain: LYSSSDDVIELTPSNFNREVIQSDSLWLVEFYAPWCGHCQRLTPEWKKAATALKDVVKVGAVDADKHHSLGGQYGVQGFPTIKIFGSNKNRPEDYQGGRTGEAIVDAALSALRQLVKD
With B6, in test [2], the binding result was “binds”.

B7: PDIA6 (1-118) C36S, HA tag (domain or fragment, UniProt Q15084 20-137)
chain: LYSSSDDVIELTPSNFNREVIQSDSLWLVEFYAPWSGHCQRLTPEWKKAATALKDVVKVGAVDADKHHSLGGQYGVQGFPTIKIFGSNKNRPEDYQGGRTGEAIVDAALSALRQLVKD
As for B7, the binding entry in test [2] is listed as “no binding”.

B8: PDIA13, HA tag (enzyme, UniProt Q96JJ7 25-454)
chain: KGFVEDLDESFKENRNDDIWLVDFYAPWCGHCKKLEPIWNEVGLEMKSIGSPVKVGKMDATSYSSIASEFGVRGYPTIKLLKGDLAYNYRGPRTKDDIIEFAHRVSGALIRPLPSQQMFEHMQKRHRVFFVYVGGESPLKEKYIDAASELIVYTYFFSASEEVVPEYVTLKEMPAVLVFKDETYFVYDEYEDGDLSSWINRERFQNYLAMDGFLLYELGDTGKLVALAVIDEKNTSVEHTRLKSIIQEVARDYRDLFHRDFQFGHMDGNDYINTLLMDELTVPTVVVLNTSNQQYFLLDRQIKNVEDMVQFINNILDGTVEAQGGDSILQRLKRIVFDAKSTIVSIFKSSPLMGCFLFGLPLGVISIMCYGIYTADTDGGYIEERYEVSKSENENQEQIEESKEQQEPSSGGSVVPTVQEPKDVLEKKKD
Take B8: the binding result in test [2] is on record as “binds”.

B9: PDIA8, HA tag (protein, UniProt Q96DN0 26-273)
chain: EVEKSSDGPGAAQEPTWLTDVPAAMEFIAATEVAVIGFFQDLEIPAVPILHSMVQKFPGVSFGISTDSEVLTHYNITGNTICLFRLVDNEQLNLEDEDIESIDATKLSRFIEINSLHMVTEYNPVTVIGLFNSVIQIHLLLIMNKASPEYEENMHRYQKAAKLFQGKILFILVDSGMKENGKVISFFKLKESQLPALAIYQTLDDEWDTLPTAEVSVEHVQNFCDGFLSGKLLKENRESEGKTPKVEL
For the molecule B9, in test [2], the binding entry is “no binding”.
